The campaign covered roughly 71,000 compounds. About 1,800 (2.5%) were called active. The inconclusive results got no clear call from the source; some entries with a clear call stand among them for comparison. Calls follow the shape of the dose curve; as a rule, active = well fitted activation curve with a large enough effect in the signal ratio, with a control signal flat (not every such curve was filed as active); inconclusive = small, poorly fitted or top-dose-only effect, or effect the other way, or a change in a side signal; inactive = flat fitted curve, though single readings scatter; the % refers to the signal ratio. Potencies of inconclusive entries are doubtful fits and often do not repeat.
Test: Cell signaling CRE-BLA (Fsk stim); as to activity change, negative = inhibition: % of control where 0% means no effect
Details: CHO CRE-bla reporter (cAMP response element driving beta-lactamase), forskolin EC10, beta-lactamase ratio; activity change, negative = inhibition: at 38.2 µM (top of the series) unless noted
In short: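 qHTS titration format; CRE-bla CHO reporter; stimulus EC10 NKH 477, a water-soluble forskolin. Read: CCF4 460/530 nm ratio. Potency expressed as AC50 for activators or inhibitors.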
Potency is read from the fitted curve at half-maximal effect; tags tell the direction and shape of the fitted curve.

Structure (SMILES)	activity change, negative = inhibition	Potency
CCOC(=O)N1CCC(Nc2nc3ccccc3n3nnnc23)CC1	inconclusive: 9.28%	
Cc1nc(SCC(=O)c2ccc(F)cc2)n[nH]1	inconclusive: -19.4% [at 7.6 µM]	
CN1CCN(C(=O)c2cc3c(ccc4ccccc43)oc2=O)CC1		inconclusive: 7.94 µM [rising, partial curve]
CCCc1nc2sc3c(c2c(=O)n1N)CCC3		inconclusive: 10 µM [rising, single point]
O=C(CCn1c(=O)[nH]c2ccsc2c1=O)N1CCN(Cc2ccc3c(c2)OCO3)CC1	inconclusive: -9.94%	
O=C1CCCN1CN(C(=O)c1ccc2c(c1)OCO2)c1ccc(F)cc1	inconclusive: -4.03%	
Cn1cc(SCC(=O)Nc2nc3ccccc3s2)c2ccccc21	inconclusive: -29.4%	
Cc1ccccc1-c1nc(CS(=O)(=O)CC(=O)NCCCN2CCCC2)c(C)o1	inactive: -5.94%	
c1cncc(-c2nnc(SCc3cccc4ccccc34)o2)c1		inconclusive: 25.1 µM [rising, single point]
O=C(Nc1cccc(F)c1)N1CCC2(CC1)CCN(C(=O)c1ccco1)CC2	inactive: -17.8%	
COc1ccc([C@@H]2Sc3ccccc3N(CCN(C)C)C(=O)[C@@H]2OC(C)=O)cc1	inconclusive: -17.2%	
CCOC(=O)c1ccc2nc3c(cc2c1)CCS3	inconclusive: 22.4%	
O=c1c(-c2ccc(F)cc2)nc2cnc(N3CCOCC3)nc2n1-c1ccccc1		inconclusive: 2.51 µM [rising, full curve]
CCOC(=O)c1ccc(-n2c(N)c(C(=O)NCc3ccco3)sc2=S)cc1	inactive: 0.694%	
C/C(=C1\SC(N2CCOCC2)=NC1=O)c1ccccc1		inconclusive: 3.98 µM [rising, single point]
Cc1nc(NC(=O)CSc2nc3cccnc3n2C2CCCCC2)sc1C	inconclusive: 15.5%	
COc1ccc(N(C(=O)CNC(=O)c2ccco2)C(C(=O)NC2CCCCC2)c2ccco2)cc1 (centres undefined)	inconclusive: -28.4%	
CC(=O)Oc1cc(OC(C)=O)c2c(=O)cc(-c3ccc(OC(C)=O)c(OC(C)=O)c3)oc2c1		inconclusive: 6.31 µM [falling, partial curve]
CC(=O)c1ccc(NS(=O)(=O)Cc2ccccc2)cc1	inactive: -1.21%	
COc1cc2nc(N3CCN(C(=O)[C@H]4CCCO4)CC3)nc(N)c2cc1OC		inconclusive: 15.8 µM [rising, partial curve]
O=C(CSc1ccc2nnc(-c3ccccc3)n2n1)N1CCN(c2ccccc2)CC1		inconclusive: 10 µM [rising, partial curve]
O=C1CSC(=O)N1CC(O)COc1ccc(Cl)cc1 (centres undefined)	inconclusive: -1.76% [at 7.6 µM]	
CCCCn1c2c(c3ccccc31)CCc1nonc1-2		inconclusive: 6.31 µM [rising, partial curve]
CCn1cc(C(=O)OCC(=O)N(C)C2CCS(=O)(=O)C2)c(=O)c2ccc(C)nc21 (centres undefined)	inconclusive: 3.61%	
COc1cccc2sc(Nc3nnc(-c4ccccc4Cl)o3)nc12		active: 5.01 µM
Cc1c(Cl)cccc1Nc1nc(N)nc(CSc2ncccn2)n1		inconclusive: 10 µM [rising, single point]
Fc1cccc(Cl)c1CSc1nnnn1-c1ccc2c(c1)OCO2		inconclusive: 1.58 µM [rising, partial curve, poor fit]

Structure (SMILES)	activity change, negative = inhibition	Potency
CCCS(=O)(=O)N1CCN(C(=O)CCC2CCCC2)CC1	inconclusive: -15.3%	
COc1ccc(Oc2ncc3nc(C)c(=O)n(-c4ccc(OC)cc4)c3n2)cc1	inconclusive: 28.4%	
c1ccc2c(c1)oc1c(NCCCn3ccnc3)ncnc12	inactive: 24.5%	
Cc1cccc(CNc2ccnc(-c3ccccc3Cl)n2)c1	inactive: -14.1%	
CCN(CC)C(=O)COc1ccc2oc(C)c(C(=O)OC)c2c1	inconclusive: 18.8%	
CCOc1ccc(N(CC(=O)Nc2ccc(C)c(C)c2)S(=O)(=O)c2c(C)noc2C)cc1	inconclusive: -1.56%	
Cc1nc(Nc2ccc(F)cc2)[nH]c(=O)c1CCC(C)C	inconclusive: 0.997%	
O=c1oc2ccccc2c(O)c1/C=N/c1nc(-c2ccc(O)c(O)c2)cs1	inconclusive: -21.2% [at 7.6 µM]	
Cc1onc(-c2ccccc2)c1C(=O)Nc1ccccc1C#N	inconclusive: 21.6%	
CCCCn1c(Cl)nc2c1c(=O)n(C)c(=O)n2C	inconclusive: 22.7%	
CCOC(=O)c1ccccc1NCN1C(=O)CSC1=O	inactive: 2.76%	
Nc1c(C(=O)NC2CCCCC2)nsc1C(=O)OCC(=O)NC1CCCCC1	inconclusive: 19.6%	
C=CC(=O)OCCOCCOC(=O)C=C	inconclusive: -26.9%	
COc1ccc(N2CCN(C(c3cccs3)C(C)NC(=O)c3ccco3)CC2)cc1 (centres undefined)	inconclusive: -5.62%	
CCNC(=O)CC1C(=O)N(c2ccccc2)C(=O)N1CCc1ccc(OC)cc1 (centres undefined)	inconclusive: 5.43%	
Cc1ccccc1C(=O)N1CCCN(C(=O)c2ccccc2C)CC1	inactive: -9.59%	
CCOc1cc(N2CCOCC2)c(OCC)cc1NC(=O)CN1C(=O)NC(Cc2ccccc2)C1=O (centres undefined)	inactive: 5.09%	
CCc1c(C(=O)Nc2cc(C)ccc2OC)[nH]c(C)c1C(C)=O	inconclusive: 19%	
CC[C@H](c1ccccc1)c1cc(C(C)(C)C)cc(C(C)(C)C)c1O	inconclusive: 13.7% [at 7.6 µM]	
Cc1cc(C)n(-c2nc3c(c(=O)[nH]c(=O)n3C)n2CC(O)COc2ccccc2)n1 (centres undefined)	inconclusive: 18.2%	
CNc1nc2c(c(=O)n(C)c(=O)n2C)n1Cc1ccccc1		inconclusive: 5.01 µM [rising, partial curve]
COc1ccc(S(=O)(=O)N(C)CC(=O)N2CCC(C)CC2)cc1Cl	inconclusive: -22.3%	
Cc1c(/C(O)=C2/C(=O)C(=O)N(CCN3CCOCC3)C2c2ccco2)cnn1-c1ccccc1 (centres undefined)	inconclusive: 9.11%	
O=C(c1ccco1)[C@@H]1[C@@H]2C(=O)N(c3ccccc3)C(=O)[C@@H]2C2c3ccccc3C=CN21 (some centres undefined)		inconclusive: 12.6 µM [falling, single point]
CC(C)Oc1cc2oc(=O)c3c(c2cc1Cl)CCC3	inactive: 9.06%	
O=C(CSc1nc2ccccc2c(=O)n1Cc1ccco1)N1CCCCCC1	inconclusive: 16.4%	
CN1CCN(c2ncc3nc(-c4ccc(Cl)cc4)c(=O)n(CCC#N)c3n2)CC1		inconclusive: 1 µM [rising, partial curve]

Structure (SMILES)	activity change, negative = inhibition	Potency
O=C(NCc1ccccc1)c1ccc(F)c(S(=O)(=O)N2CCOCC2)c1	inconclusive: -13.1%	
CCOC(=O)CSc1nnc(CNC(=O)c2cccs2)n1-c1cc(C)ccc1C		inconclusive: 15.8 µM [rising, partial curve]
COc1cc2c(C(=O)N3CCCc4ccccc43)cn(C)c(=O)c2cc1OC		inconclusive: 12.6 µM [rising, partial curve]
CCSc1ncnc2c(C#N)c3n(c12)CCCCC3		inconclusive: 6.31 µM [rising, partial curve]
O=C(c1ccco1)N1CCN(S(=O)(=O)c2ccc3c(c2)CCN3C(=O)C2CCC2)CC1		inconclusive: 12.6 µM [rising, partial curve]
CCN1C(=O)c2ccccc2Sc2ccc(C(=O)NCCN3CCOCC3)cc21	inconclusive: 19.2%	
CCCCOC(=O)C1CCCC(C(=O)OCCCC)N1 (centres undefined)	inactive: -5.37%	
c1ccc(-c2nc(N3CCN(c4ccccc4)CC3)nc(-n3ccnc3)n2)cc1	inactive: 13%	
Cn1nnnc1SCC(=O)N1c2ccccc2Sc2ccc(Cl)cc21	inconclusive: 0.00673%	
Cc1c(Cl)cccc1-n1ccnc1SCC(=O)O		inconclusive: 12.6 µM [rising, partial curve]
CCCNC(=O)N1N=C(c2ccc(N)cc2)c2cc3c(cc2[C@H]1C)OCO3	inactive: 5.04%	
Cc1cc(C)nc(SCC(=O)c2cc3ccccc3oc2=O)n1	inactive: -4.51%	
COc1cccc(-c2cc(N(C)Cc3ccco3)ncn2)c1	inactive: 13.2%	
CC[N+]1(C)[C@@H]2CC[C@H]1CC(OC(=O)[C@H]1CC[C@@](C(=O)OC3C[C@H]4CC[C@@H](C3)[N+]4(C)CC)(c3ccccc3)c3ccccc31)C2 (some centres undefined)	inactive: -7.99% [at 17.1 µM]	
COc1ccccc1OCCSc1nnnn1-c1ccc(C)cc1		inconclusive: 10 µM [rising, single point]
O=c1ccsn1Cc1ccccc1	inconclusive: -18.7%	
CCOC(=O)c1ccc(NC(=O)CCNc2c(N3CCCC3)c(=O)c2=O)cc1	inactive: -16.8%	
O=c1c2ccccc2nnn1CSc1nc2sc3c(c2c(=O)n1CC1CCCO1)CCC3 (centres undefined)		inconclusive: 10 µM [rising, partial curve]
COc1ccc(OC)c(C(c2nnnn2C2CCCC2)N2CCN(c3ccc(F)cc3)CC2)c1 (centres undefined)	inactive: -7.51%	
O=C1CCc2cc(S(=O)(=O)N3CCN(c4cccc(C(F)(F)F)c4)CC3)ccc2N1	inconclusive: 20.2%	
Cc1cc(-c2ccc(Cl)cc2)n2nc(N)nc2n1		active: 12.6 µM
CO[C@@H]1/C=C\O[C@]2(C)Oc3c(C)c(O)c4c(O)c(cc(O)c4c3C2=O)NC(=O)/C(C)=C\C=C/[C@H](C)[C@@H](O)[C@H](C)[C@H](O)[C@H](C)[C@H](OC(C)=O)[C@@H]1C	inactive: 2.13% [at 7.6 µM]	
O=C1C=C(NCCO)C(=O)c2cnccc21	inconclusive: -0.414%	
CCn1ncc(Br)c1C(=O)Nc1ccc(Cl)cn1		inconclusive: 12.6 µM [rising, partial curve]
COc1cccc(Nc2ncc3nc(-c4cccs4)c(=O)n(C[C@H]4CCCO4)c3n2)c1		inconclusive: 3.16 µM [rising, partial curve]
